Results: PMC5681660, “Reduced hepatitis B and D viral entry using clinically applied drugs as novel inhibitors of the bile acid transporter NTCP” (Scientific Reports, 2017)
Counter-ions that a name gives are not always drawn. Like-named read-outs stand apart in the source and are kept apart here. Non-standard residues stand in square brackets, D forms with d. Residues, ends and D or L forms follow the SMILES beside them. *: point of attachment. Sta = CC(C)C[C@H](N)[C@@H](O)CC(=O)O; Isovaleryl = CC(C)CC(=O)*

Legend:
human NTCP [1] = target: T1, human NTCP (Homo sapiens, UniProt Q14973); experiment: Screening taurocholate uptake assay (96-well, [14C]taurocholate, 10 µM drug); conditions: for remaining activity at 10 µM: 10 min, read-out: %NTCP activity
T1 sequence (Q14973 1-349): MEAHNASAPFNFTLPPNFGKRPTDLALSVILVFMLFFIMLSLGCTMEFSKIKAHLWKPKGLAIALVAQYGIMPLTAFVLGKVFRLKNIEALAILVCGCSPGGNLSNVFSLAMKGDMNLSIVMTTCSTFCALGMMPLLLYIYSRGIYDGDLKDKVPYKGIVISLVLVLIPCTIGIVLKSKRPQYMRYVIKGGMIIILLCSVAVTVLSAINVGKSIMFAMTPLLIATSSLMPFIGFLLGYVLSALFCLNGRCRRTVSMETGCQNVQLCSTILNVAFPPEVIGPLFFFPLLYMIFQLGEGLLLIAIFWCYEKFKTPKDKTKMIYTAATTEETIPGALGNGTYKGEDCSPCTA

human NTCP [2] = target: T1, human NTCP; experiment: Screening fluorescent competitive Myrcludex B-FITC binding assay (96-well, 10 µM drug)
[3] = 0.5 h, read-out: %NTCP binding, Prestwick library screen, Myrcludex B-FITC binding, 10 µM drug
[4] = Prestwick library screen, 10 µM drug, Myrcludex B-FITC binding
[5] = screen, 10 µM drug, Myrcludex B-FITC binding
[6] = 0.5 h, read-out: %NTCP binding, screen, 10 µM drug, Myrcludex B-FITC binding

Row | SMILES | remaining activity at 10 µM (human NTCP [1]) [%] | remaining activity at 10 µM (human NTCP [2]; 0.5 h, read-out: %NTCP binding) [%] | further results
1 | CC(C(O)c1ccc(O)cc1)N1CCC(Cc2ccccc2)CC1.CC(C(O)c1ccc(O)cc1)N1CCC(Cc2ccccc2)CC1.O=C(O)C(O)C(O)C(=O)O (stereo not drawn) [Ifenprodil tartrate] | – | – | %NTCP activity (human NTCP [1]; Prestwick library screen, [14C]taurocholate uptake, 10 µM drug): 83.9725%; %NTCP binding (human NTCP [2]; Prestwick library screen, Myrcludex B-FITC binding, 10 µM drug): 75.0771%
2 | CCCCOC(=O)c1ccc(O)cc1 [Butylparaben] | 100 | – | remaining activity at 10 µM (human NTCP [2]; [3]): 119%
3 | CNCCC(Oc1ccccc1OC)c1ccccc1 (stereo not drawn) [Nisoxetine hydrochloride] | 56.3 | 108 | –
4 | COc1ccc(CC2c3cc(OC)c(OC)cc3CC[N+]2(C)CCC(=O)OCCCCCOC(=O)CC[N+]2(C)CCc3cc(OC)c(OC)cc3C2Cc2ccc(OC)c(OC)c2)cc1OC (stereo not drawn) [Atracurium besylate] | 130 | 115 | –
5 | Nc1nc(N)nc(-c2cc(Cl)ccc2Cl)n1 [Irsogladine maleate] | 135 | 75.2 | –
6 | CN(C)[C@@H]1C(O)=C(C(N)=O)C(=O)[C@@]2(O)C(O)=C3C(=O)c4c(O)ccc(Cl)c4[C@@H](O)[C@H]3C[C@@H]12 [Demeclocycline hydrochloride] | 62 | 89 | –
7 | CCCCN(CCCC)CCCOC(=O)c1ccc(N)cc1 [Butacaine] | 79.9 | 111 | –
8 | NS(=O)(=O)c1cc(C2(O)NC(=O)c3ccccc32)ccc1Cl (stereo not drawn) [Chlorthalidone] | 93.6 | 90.2 | –
9 | NS(=O)(=O)c1cc2c(cc1Cl)N=CNS2(=O)=O [Chlorothiazide] | 50.9 | 94.1 | –
10 | Cc1cccc(C)c1NC(=O)CN1CCN(CCCC(c2ccc(F)cc2)c2ccc(F)cc2)CC1 [Lidoflazine] | 113 | 62.4 | –
11 | CCN(CC)CC(=O)Nc1c(C)cccc1C [Lidocaine hydrochloride] | 89.3 | 115 | –
12 | CC(C)(C)NC[C@H](O)COc1nsnc1N1CCOCC1.O=C(O)/C=C\C(=O)O [Timolol maleate salt] | – | – | %NTCP activity (human NTCP [1]; Prestwick library screen, 10 µM drug, [14C]taurocholate uptake): 71.1626%; %NTCP binding (human NTCP [2]; [4]): 83.6828%
13 | CS(=O)(=O)c1ccc([C@@H](O)[C@@H](CO)NC(=O)C(Cl)Cl)cc1 [Thiamphenicol] | 84 | 108 | –
14 | NC(=O)c1ccc[n+]([C@@H]2O[C@H](COP(=O)([O-])OP(=O)(O)OC[C@H]3O[C@@H](n4cnc5c(N)ncnc54)[C@H](O)[C@@H]3O)[C@@H](O)[C@H]2O)c1 [Nadide] | 118 | 99.8 | –
15 | CCCCOc1ccc(OCCCN2CCOCC2)cc1 [Pramoxine hydrochloride] | 120 | 83 | –
16 | C#C[C@]1(O)CC[C@H]2[C@@H]3CCC4=CC(=O)CC[C@]4(C)[C@H]3CC[C@@]21C [Ethisterone] | 41.3 | – | remaining activity at 10 µM (human NTCP [2]; [3]): 96.9%
17 | CCC(COC(=O)c1cc(OC)c(OC)c(OC)c1)(c1ccccc1)N(C)C (stereo not drawn) [Trimebutine] | 51.7 | 91.2 | –
18 | CC(C)CC(=O)N[C@H](C(=O)N[C@H](C(=O)N[C@@H](CC(C)C)[C@@H](O)CC(=O)N[C@@H](C)C(=O)N[C@@H](CC(C)C)[C@@H](O)CC(=O)O)C(C)C)C(C)C [Pepstatin A] (Isovaleryl-VV[Sta]A[Sta]-OH) | 63.6 | 67.2 | –
19 | CCNCC(O)c1cccc(O)c1 (stereo not drawn) [Etilefrine hydrochloride] | 69.7 | 89.9 | –
20 | C#CCN(C)Cc1ccccc1 [Pargyline hydrochloride] | 109 | 84 | –
21 | COc1ccc([C@@H]2Sc3ccccc3N(CCN(C)C)C(=O)[C@@H]2OC(C)=O)cc1 [Diltiazem hydrochloride] | 57.3 | 89.6 | –
22 | CCCCNc1ccc(C(=O)OCCN(C)C)cc1.Cl [Tetracaïne hydrochloride] | – | – | %NTCP activity (human NTCP [1]): 103.395%; %NTCP binding (human NTCP [2]; [4]): 90.0944%
23 | O=C1CCc2ccc(OCCCCN3CCN(c4cccc(Cl)c4Cl)CC3)cc2N1 [Aripiprazole] | 83.6 | 79.6 | –
24 | N[C@@H](Cc1cc(I)c(Oc2cc(I)c(O)c(I)c2)c(I)c1)C(=O)O [Thyroxine (L)] | – | – | %NTCP activity (human NTCP [1]): 54.8973%; %NTCP binding (human NTCP [2]; [5]): 51.9567%
25 | CC[C@@H]1C(=O)OC[C@@H]1Cc1cncn1C [Pilocarpine nitrate] | 26.4 | 51.5 | –
26 | CC(C(=O)O)c1ccc(-c2ccccc2)c(F)c1 (stereo not drawn) [Flurbiprofen] | 37.2 | 129 | –

Row | SMILES | remaining activity at 10 µM (human NTCP [1]) [%] | remaining activity at 10 µM (human NTCP [2]; 0.5 h, read-out: %NTCP binding) [%] | further results
27 | C[C@]12CC[C@@H]3c4ccc(O)cc4CC[C@H]3[C@@H]1CCC2=O [Estrone] | 48.7 | – | %NTCP binding (human NTCP [2]; [4]): 132.106%
28 | COc1cccc2c1C(=O)c1c(O)c3c(c(O)c1C2=O)C[C@@](O)(C(=O)CO)C[C@@H]3O[C@H]1C[C@H](N)[C@H](O)[C@H](C)O1 [Doxorubicin hydrochloride] | 55.8 | 67.7 | –
29 | CCC(Cc1c(I)cc(I)c(N)c1I)C(=O)O (stereo not drawn) [Iopanoic acid] | 50.5 | 95.3 | –
30 | CC(C)(N)Cc1ccccc1.Cl [Phentermine hydrochloride] | – | – | %NTCP activity (human NTCP [1]): 125.158%; %NTCP binding (human NTCP [2]; [4]): 72.3854%
31 | CN1C[C@H](C(=O)N[C@]2(C)O[C@@]3(O)[C@@H]4CCCN4C(=O)[C@H](Cc4ccccc4)N3C2=O)C[C@@H]2c3cccc4[nH]cc(c34)C[C@H]21.CN1C[C@H](C(=O)N[C@]2(C)O[C@@]3(O)[C@@H]4CCCN4C(=O)[C@H](Cc4ccccc4)N3C2=O)C[C@@H]2c3cccc4[nH]cc(c34)C[C@H]21.O=C(O)C(O)C(O)C(=O)O [Dihydroergotamine tartrate] | – | – | %NTCP activity (human NTCP [1]; screen, 10 µM drug, [14C]taurocholate uptake): 90.1719%; %NTCP binding (human NTCP [2]; [5]): 72.4359%
32 | COC(=O)Nc1nc2ccc(Sc3ccccc3)cc2[nH]1 [Fenbendazole] | 129 | 58.7 | –
33 | OC(CCN1CCCCC1)(c1ccccc1)C1CC2C=CC1C2 (stereo not drawn) [Biperiden hydrochloride] | 56.7 | 78 | –
34 | O=C(CCCN1CCC(n2c(O)nc3ccccc32)CC1)c1ccc(F)cc1 [Benperidol] | 60.2 | – | remaining activity at 10 µM (human NTCP [2]; [6]): 77.2%
35 | C[N+]1(C)CCC(=C(c2ccccc2)c2ccccc2)CC1 [Diphemanil methylsulfate] | 161 | 108 | –
36 | Clc1ccc(C(c2ccccc2Cl)C(Cl)Cl)cc1 (stereo not drawn) [Mitotane] | 73.7 | 113 | –
37 | CN1CCN2c3ncccc3Cc3ccccc3C2C1 (stereo not drawn) [Mirtazapine] | 30.8 | 76 | –
38 | C[C@]12COC(=O)C[C@@H]1CC[C@@H]1[C@@H]2CC[C@@]2(C)[C@H]1CC[C@]2(C)O [Oxandrolone] | 63.2 | 87.4 | –
39 | O=C(Nc1ccccc1)OCC(CN1CCCCC1)OC(=O)Nc1ccccc1 (stereo not drawn) [Diperodon hydrochloride] | 125 | 59.4 | –
40 | CCC[C@H](N[C@@H](C)C(=O)N1[C@H](C(=O)O)C[C@@H]2CCCC[C@@H]21)C(=O)OCC [Perindopril] | 82.8 | 104 | –
41 | CC(=O)OCC(=O)[C@@]12N=C(C)O[C@@H]1C[C@H]1[C@@H]3CCC4=CC(=O)C=C[C@]4(C)[C@H]3[C@@H](O)C[C@@]12C [Deflazacort] | 97.8 | 108 | –
42 | CCOCCn1c(N2CCCN(C)CC2)nc2ccccc21 [Emedastine] | 97.6 | 86.1 | –
43 | COCC1=C(C(=O)OC(C)OC(=O)OC(C)C)N2C(=O)[C@@H](NC(=O)/C(=N\OC)c3csc(N)n3)[C@H]2SC1 (stereo partly drawn) [Cefpodoxime proxetil] | 109 | 40.4 | –
44 | O=P1(NCCCl)OCCCN1CCCl (stereo not drawn) [Ifosfamide] | 104 | – | remaining activity at 10 µM (human NTCP [2]; [6]): 101%
45 | C[N+](C)(C)CCCCCCCCCC[N+](C)(C)C [Decamethonium bromide] | 56.7 | – | remaining activity at 10 µM (human NTCP [2]; [6]): 104%
46 | CNCC[C@@H](Oc1ccccc1C)c1ccccc1 [Tomoxetine hydrochloride] | 154 | 69.9 | –
47 | c1ccc(CC2=NCCN2)cc1 [Tolazoline hydrochloride] | 125 | 106 | –
48 | Cc1cc2cc3c(C)cc(=O)oc3c(C)c2o1 [Trioxsalen] | 117 | 89.4 | –
49 | O=C(CCCN1CC=C(n2c(=O)[nH]c3ccccc32)CC1)c1ccc(F)cc1 [Droperidol] | 48.7 | 68.3 | –
50 | CN1CCN(CCCN2c3ccccc3Sc3ccc(C(F)(F)F)cc32)CC1 [Trifluoperazine dihydrochloride] | 101 | 77.1 | –
51 | C#C[C@]1(O)CC[C@H]2[C@@H]3CCC4=C(CCC(=O)C4)[C@H]3CC[C@@]21C [Norethynodrel] | 129 | 108 | –
